# Results from the supplement of paper PMC12217912.
# This is one part of the list. The full chains were built here from the parent and the listed change. Inactive controls read about 0.05.
# B1: TEV protease; numbered along this chain (parent)
# chain: MGESLFKGPRDYNPISSSICHLTNESDGHTTSLYGIGFGPFIITNKHLFRRNNGTLVVQSLHGVFKVKDTTTLQQHLVDGRDMIIIRMPKDFPPFPQKLKFREPQREERICLVTTNFQTKSMSSMVSDTSCTFPSGDGIFWKHWIQTKDGQCGSPLVSTRDGFIVGIHSASNFTNTNNYFTSVPKNFMELLTNQEAQQWVSGWRLNADSVLWGGHKVFMVKPEEPFQPVKEATQL
# Variants of: B1
# Assay: raw area under fraction-flipped curve 0-4 h after induction (AUC4h, not background-subtracted), DNA-recorder readout of cleavage of the substrate (dimensionless); higher = more cleavage of the substrate by the protease variant
# Settings: temperature: 34 °C; time window: 0-4 h after rhamnose induction
# Procedure: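 In vivo DNA recorder in E. coli TOP10(DE3) ΔrhaA at 34 °C. Each TEVp single-site mutant (parent TEVp 0) is paired with a single-site variant of the 7-mer TEVs (canonical ENLYFQ|S). The substrate sits between flexible linkers in a Bxb1-sfGFP-TEVs-SsrA fusion, so cleavage stabilises Bxb1 and speeds flipping of a recombination array, read by NGS. The value is the raw area under the fraction-flipped curve over 0-4 h after rhamnose induction (AUC4h), with ≥20 reads per time point. It is not background-subtracted; inactive controls average about 0.047.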
# 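Further: Bxb1 expression induced with 0.2% (w/v) L-rhamnose at OD600 near 0.5, cultures sampled hourly, flipped fraction per protease–substrate barcode pair counted by paired-end Illumina sequencing.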
Variant,area with substrate ENLAFQS,area with substrate ENLCFQS,area with substrate ENLDFQS,area with substrate ENLEFQS,area with substrate ENLFFQS,area with substrate ENLHFQS,area with substrate ENLIFQS,area with substrate ENLKFQS,area with substrate ENLLFQS,area with substrate ENLMFQS,area with substrate ENLNFQS,area with substrate ENLPFQS,area with substrate ENLQFQS,area with substrate ENLSFQS,area with substrate ENLVFQS,area with substrate ENLWFQS,area with substrate ENLRFQS,area with substrate ENLGFQS,area with substrate ENLTFQS
MGESLFKGPRDYNPISSSICHLTNESDGHTTSLYGIGFGPFIITNKHLFRRNNGTLVVQSLHGVFKVKDTTTLQQHLVDGRDMIIIRMPKDFPPFPQKLKFREPQREERICLVTTNFQTKSMSSMVSDTSCTFPSGDGIFWKHWIQTKDGQCGSPLVSTRDGFIVGIHSASNFTNTNNYFTSVPKNFMELLQNQEAQQWVSGWRLNADSVLWGGHKVFMVKPEEPFQPVKEATQL [T192Q],0.0685,0.0539,0.0603,0.0719,0.0916,0.0729,0.0768,0.0716,0.076,0.0974,0.0724,0.0536,0.0699,0.0559,0.0882,0.0715,,,
MGESLFKGPRDYNPISSSICHLTNESDGHTTSLYGIGFGPFIITNKHLFRRNNGTLVVQSLHGVFKVKDTTTLQQHLVDGRDMIIIRMPKDFPPFPQKLKFREPQREERICLVTTNFQTKSMSSMVSWTSCTFPSGDGIFWKHWIQTKDGQCGSPLVSTRDGFIVGIHSASNFTNTNNYFTSVPKNFMELLTNQEAQQWVSGWRLNADSVLWGGHKVFMVKPEEPFQPVKEATQL [D128W],0.197,,0.0682,,0.156,0.112,,,0.0583,,0.188,0.055,,0.0887,,,0.115,,
MGESLFKGPRDYNPISSSICHLPNESDGHTTSLYGIGFGPFIITNKHLFRRNNGTLVVQSLHGVFKVKDTTTLQQHLVDGRDMIIIRMPKDFPPFPQKLKFREPQREERICLVTTNFQTKSMSSMVSDTSCTFPSGDGIFWKHWIQTKDGQCGSPLVSTRDGFIVGIHSASNFTNTNNYFTSVPKNFMELLTNQEAQQWVSGWRLNADSVLWGGHKVFMVKPEEPFQPVKEATQL [T23P],0.062,0.0423,0.0461,0.0592,0.0475,0.0513,0.0488,0.044,0.0445,,0.0376,0.0295,0.0679,0.0459,0.0499,0.0777,0.045,,
MGESLFKGPRDYNPISSSICHLTNESDGHTTSLYGIGFGPFIITNKHLFRRNNGTLVVQSLHGVFKVKDTTTLQQHLVDGRDMIIIRMPKDFPPFPQKLKFREPQREERICLVTTNFQTKSMSSMVSDTSCTFPSRDGIFWKHWIQTKDGQCGSPLVSTRDGFIVGIHSASNFTNTNNYFTSVPKNFMELLTNQEAQQWVSGWRLNADSVLWGGHKVFMVKPEEPFQPVKEATQL [G136R],0.0676,0.0696,0.0644,0.0688,0.0837,0.0422,,0.0666,,,0.058,0.0681,0.0587,0.0676,0.0499,0.0492,0.0711,,
MGESLFKGPRDYNPISSSICHLTNESDGHTTSLYGIGFGPFIITNKHLFRRNNGTSVVQSLHGVFKVKDTTTLQQHLVDGRDMIIIRMPKDFPPFPQKLKFREPQREERICLVTTNFQTKSMSSMVSDTSCTFPSGDGIFWKHWIQTKDGQCGSPLVSTRDGFIVGIHSASNFTNTNNYFTSVPKNFMELLTNQEAQQWVSGWRLNADSVLWGGHKVFMVKPEEPFQPVKEATQL [L56S],0.0489,0.0608,0.0454,0.0629,0.0436,0.0511,0.0558,0.0616,0.0487,,0.0759,0.0481,0.0685,0.0509,,0.047,0.0526,0.055,0.0398
MGESLFKGPRDYNPISSSICHLTNESDGHTTSLYGIGFGPFIITNKHLFRRNNGTLVVQSLHGVFKVKDTTTLQQHLVDGRDMIIIRMPKDFPPFPQKLKFREDQREERICLVTTNFQTKSMSSMVSDTSCTFPSGDGIFWKHWIQTKDGQCGSPLVSTRDGFIVGIHSASNFTNTNNYFTSVPKNFMELLTNQEAQQWVSGWRLNADSVLWGGHKVFMVKPEEPFQPVKEATQL [P104D],0.0599,0.0512,0.063,0.0493,0.0719,0.0524,,0.059,0.0542,,0.0575,0.06,,0.0418,,0.0514,0.0327,,0.0571
MGESLFKGPRDYNPISSSICHLTNESDGHTTSLYGIGFGFFIITNKHLFRRNNGTLVVQSLHGVFKVKDTTTLQQHLVDGRDMIIIRMPKDFPPFPQKLKFREPQREERICLVTTNFQTKSMSSMVSDTSCTFPSGDGIFWKHWIQTKDGQCGSPLVSTRDGFIVGIHSASNFTNTNNYFTSVPKNFMELLTNQEAQQWVSGWRLNADSVLWGGHKVFMVKPEEPFQPVKEATQL [P40F],0.0701,,0.0571,0.0603,0.0757,0.0511,0.0839,0.074,,,0.0699,0.0612,,0.067,0.0804,0.0722,0.0882,0.0541,
MGESLFKGPRDYNPISSSICHLTNESDGHTTSLYGIGFGPFIITNKHLFRRNNGTLVVQSLHGVFKVKDTTTLQQHLVDGRDMIIIRMPKDFPPFPQKLKFREPQREERICLVTTNFQTKSMSSMVSDTSCTFPSGDGIFWKHWIQTKDGQCGSPLVSTRDGFIVGIHSASNFTNTNNYFTSVPKNFMELLTNQEAQQWVSGWRLNADSVLWGGHKVFMVKPEEPFQPVKETTQL [A232T],,0.0561,,,,0.058,0.0767,0.0844,,0.0845,0.0592,,,0.0564,,0.07,0.0601,,
MGESLFKGPRDYNPISSSICHLTNESDGHTTSLYGIGFGPFIITNKHLFRRNNGTLVVQSLHGVFKVKDTTTLQQHLVDGRDMIIIRMPKDFPPFPQKLKFREPQREERICLVTTNFQTKSMSSMVSDTSCTFPSGDGIFWKHWIQTKDGQCGSPLVSTRDGFIVGIHSASNFTNTNNYFTSVPKNFMELLTNQEAQQWVSGWRLNADSVLWGGHGVFMVKPEEPFQPVKEATQL [K216G],,0.0327,0.0471,0.0584,0.049,0.053,,0.0454,,,0.0457,0.044,,0.054,0.0391,,0.0455,,
